Source: patent publication US20260232828A1, “LIGAND-CYTOTOXICITY DRUG CONJUGATES AND PHARMACEUTICAL USES THEREOF” (HANSOH BIO LLC, priority 2023, published 2026)

B1: 1H10: anti-CDH17 antibody; SEQ ID NO: 77 (heavy chain) and 78 (light chain) (antibody, listed as Homo sapiens)
heavy: QVQLVESGGGVVQPGRSLRLSCVASGFTFSSYGMHWVRQAPGKGLEWVTFIWYDGSNKNYADSVKGRFTISRDNSKNTLNLQMNSLRVEDTAVYYCARDRYSSGWDVFDYWGQGTLVTVSS[letters of human IgG1 constant region omitted]
light: DIQMTQSPSSVSASVGDRVTITCRASQDISSWLAWYQQQPGKAPKLQIYAASSLQSGVPSRFSGSGSGTDFTLTISSLQPEDFATYYCQQAKSFPPTFGQGTKVEIKRTVAAPSVFIFPPSDEQLKSGTASVVCLLNNFYPREAKVQWKVDNALQSGNSQESVTEQDSKDSTYSLSSTLTLSKADYEKHKVYACEVTHQGLSSPVTKSFNRGEC
B2: 15A4: anti-CDH17 antibody; SEQ ID NO 91 (heavy chain) and 92 (light chain) (antibody, listed as Homo sapiens)
heavy: QVQLVESGGGVVQPGRSLRLSCAASGFNFSSYGMHWVRQAPGKGLEWVAFVWYDGSNQNYADSVKGRFTISRDNSNNTLYLQMNSLRAEDTAVYYCARDRYSSGWDVFDYWGQGTLVTVSS[letters of human IgG1 constant region omitted]
light: DIQMTQSPSSVSASVGDRVTITCRASQGISSWLAWYQQKPGKAPKLLIFAASSLQSGVPSRFSGSGSGTGFTLTISSLQPEDFATYYCQQAKSFPPTFGQGTKVEIKRTVAAPSVFIFPPSDEQLKSGTASVVCLLNNFYPREAKVQWKVDNALQSGNSQESVTEQDSKDSTYSLSSTLTLSKADYEKHKVYACEVTHQGLSSPVTKSFNRGEC

Assays:
AsPC1 cells = test: Indirect killing assay (cell internalization) of hybridoma supernatants; format: cell-based, human; conditions: hybridoma supernatant with Fab anti-mouse IgG Fc-MMAF 20 nM, in words
Description: Cell internalization activities of hybridoma supernatants were measured using an indirect killing assay in AsPC1 cells. The AsPC1 cells were seeded in 96 well plate at 8,000 cells/well with propidium iodide (abeam, Cat #ab14083) at 500 ng/mL and SPY650-DNA (Cytoskeleton, Inc., Cat #CYSC501) at 1:2000 dilution. Cells were incubated overnight at 37° C. in 5% CO2. The hybridoma supernatants from each hybridoma clone were diluted with hybridoma culture medium containing 500 ng/mL propidium iodide and 2000-fold diluted SPY650-DNA and mixed with Fab anti-mouse IgG Fc-MMAF conjugates with cleavable linker (Moradec, AM-202AF), then added to each well. The final concentrations of mouse IgG were roughly 10 nM, 3.33 nM, and 1.11 nM. The final concentration of the Fab anti-mouse IgG Fc-MMAF conjugates in each well was 20 nM. With the presence of secondary Fab-vc-MMAF, the internalized antibody/Fab-vc-MMAF conjugates complex will release the cytotoxic payload and kill the cells. Cytation5 (Agilent) was used to detect the viability of the cells in each well by imaging the plates every 8 h.
A purified anti-human CDH17 antibody was used as a positive control (Invitrogen, Cat #MA5-29135). A purified mouse IgG1 antibody was used as isotype control (Biolegend, Cat #400102).

human CDH17 His Tag = target: T1, human CDH17 His Tag (Homo sapiens, UniProt Q12864); test: ELISA binding of hybridoma clones to human CDH17 protein; conditions: hybridoma supernatant; plate coated with 1 μg/ml antigen
T1 construct: His tag; purchased Sino biological 11360-H08H
Description: (§1) ELISA was performed using the DuoSet ELISA Ancillary Kit (R&D System, DY008). ELISA plates were coated with 1 μg/ml of human CDH17 His Tag (Sino biological, catalog number 11360-H08H), or BSA overnight. Excess unbound proteins were washed off by washing the plates three times with the wash buffer before blocking for 1 hour at room temperature. 100 μl CDH17 hybridoma supernatant was added in each well and incubated for 1 hour at room temperature. Excess unbound antibodies were washed off and 100 μl of 1:30000 diluted secondary antibody Goat anti-mouse IgG Fc-HRP (ab5870) was added to each well for another 1 hour. Plates were washed before the addition 50 μL of […] (color A and color B) according to manufacturer's protocol. The reactions were stopped using 25 μL of stop solution. Optical density at 450 nm of samples was measured by a microplate reader (PerkinElmer). All tested clones bound selectively to human CDH17 but not BSA.

[1] = test system: CDH17 positive cell line AsPC1, GP2d and CDH17 negative cell line SW480; test: Flow cytometry binding of hybridoma supernatants to CDH17 expressing cancer cells; design: species or system human; conditions: undiluted hybridoma supernatant, in words
Description: Hybridoma supernatants were subjected to binding tests on CDH17 positive cell line AsPC1 (ATCC, CRL-1682), GP2d (Creative bioarray, CSC-J9456), and CDH17 negative cell line SW480 (ATCC, CCL-228) using flow cytometry analysis. Briefly, 50 μL of cells in cell staining buffer (2×10^6 cells/mL) was mixed with 50 μL undiluted supernatants. The mixture was incubated on ice for 1 hour and then washed with ice-cold staining buffer twice. The cells were subsequently stained with 50 μL of PE labeled secondary antibody (1:250 dilution, Biolegend, Cat #405307) for 20 min. After washing by staining buffer and fixing by 4% PFA, cells were analyzed by flow cytometry.
A purified anti-human CDH17 antibody was used as a positive control (Sino Biological, Cat #11360-MM02). A purified mouse IgG1 antibody was used as isotype control (Biolegend, Cat #400102).

BSA = BSA (Bos taurus, UniProt P02769); test: ELISA binding of hybridoma clones to BSA (specificity control); conditions: hybridoma supernatant; plate coated with BSA
Description: as §1

Sequence of BSA (P02769 25-607): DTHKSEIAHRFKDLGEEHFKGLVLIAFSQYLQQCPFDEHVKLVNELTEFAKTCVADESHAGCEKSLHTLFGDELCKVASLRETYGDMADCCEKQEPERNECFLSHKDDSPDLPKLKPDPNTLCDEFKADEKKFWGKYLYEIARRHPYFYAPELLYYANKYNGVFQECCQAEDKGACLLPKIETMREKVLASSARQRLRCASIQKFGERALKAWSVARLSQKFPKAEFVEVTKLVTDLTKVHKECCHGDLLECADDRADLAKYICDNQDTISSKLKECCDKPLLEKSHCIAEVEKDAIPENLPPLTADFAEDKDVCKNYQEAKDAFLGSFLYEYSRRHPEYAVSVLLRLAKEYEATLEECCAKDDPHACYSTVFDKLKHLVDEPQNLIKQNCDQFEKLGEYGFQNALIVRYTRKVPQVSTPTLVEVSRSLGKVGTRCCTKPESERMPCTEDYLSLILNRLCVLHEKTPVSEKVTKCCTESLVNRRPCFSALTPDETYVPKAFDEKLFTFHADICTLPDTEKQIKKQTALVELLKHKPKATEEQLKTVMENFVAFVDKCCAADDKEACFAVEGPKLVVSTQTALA

| Molecule | cell internalization activity (AsPC1 cells) | Protein binding (human CDH17) (human CDH17 His Tag) [OD450] | binding profile to CDH17 positive versus negative cells [1] | Protein binding (BSA) (BSA) [OD450] |
| --- | --- | --- | --- | --- |
| B1 | capable of internalizing into CDH17 positive cell line | 1.7895 | enhanced binding profile to AsPC1 cells and GP2d cells compared to SW480 cells | 0.0399 |
| B2 | capable of internalizing into CDH17 positive cell line | 1.6026 | enhanced binding profile to AsPC1 cells and GP2d cells compared to SW480 cells | 0.0431 |
